Results: the RNAGym collection of RNA variant scans (doi:10.7554/elife.90254)
Read counts are not given, so values of variants with three or more changes are uncertain.

B1: OR4K15 (parent)
chain: GUUAACGGUCAUAGGCCAUGGAAACUAGGAGCACCAUUUCGCUGCCAGUGAAGAAAUGAACAAAGAAAAUCUGGGCCAGGCAGGCAUCAAAAGAAAUAGUCUUGCGCUCAACCAGAAAGUCUGUAAUCAUUUUAAGGGUA

Variants of: B1
Experiment: self-cleavage, relative activity (ratio to wild type); higher = more cleavage; in vitro, sequencing; the parent is a self-cleaving ribozyme

Variant	self-cleavage
GUUAACGGUCAUAGGCCAUGGAAACUAGGAGCACCAUCUCGCUGCCAGUGAAGGAAUGAACAAAGAAAAUCUGGGCCAGGCAGGCACCAAAAGAAAUAGUCUUGCGCUCAACCAGAAAGUCUGUAAUCAUUUUAAGGGUA [U38C A54G U87C]	0.36
GUUAACGGUCAUAGGCCAUGGAAACUAGGAGCACCAUCUCGCUGCCAGUGAAGAAAUGAACGAAGAAAAUCUGGGCUAGGCAGGCUUCAAAAGAAAUAGUCUUGCGCUCAACCAGAAAGUCUGUAAUCAUUUUAAGGGUA [U38C A62G C77U A86U]	1.79
GUUAACGGUCAUAGGCCAUGGAAACUAGGAGCACCAUCUCGCUGCCAGUGAAGAAGUGAACAAAGAGAAUCUGGGCCAGGCAGGCAUCGAAAGAAAUAGUCUUGCGCUCAACCAGAAAGUCUGUAAUCAUUUUAAGGGUA [U38C A56G A67G A89G]	0.75
GUUAACGGUCAUAGGCCAUGGAAACUAGGAGCACCAUCUCGCUGCCAGUGAAGGAAUGAACAAAGAAAAUCCGGGCCAGGCGGGCAUCAAAAGAAAUAGUCUUGCGCUCAACCAGAAAGUCUGUAAUCAUUUUAAGGGUA [U38C A54G U72C A82G]	0.17
GUUAACGGUCAUAGGCCAUGGAAACUAGGAGCACCAUCUCGCUGCCAGUGAAGAAAUGGACAAAGAAAAUCUGGGCCAGGCAGGCAUCAAAAGAAAUAGUCUUGCACUCAACCAGAAAGUCUGUAAUCAUUUUAAGGGUA [U38C A59G G106A]	0.04
GUUAACGGUCAUAGGCCAUGGAAACUAGGAGCACCAUCUCGCUGCCAGUGAAGAAAUGAACAAAGAGAAUCUGGGCCAGGCAGGCAUCAAAAGAAAUAGUCUUGCGCUCAACCAGAAAGUCUGUAGUCAUUUUAAGGGUA [U38C A67G A126G]	2.2
GUUAACGGUCAUAGGCCAUGGAAACUAGGAGCACCAUCUCGCUGCCAGUGAAGAAAUGAACGAAGAAAGUCUGGGCCAGGCAGGCAUCAAAAGGAAAAGUCUUGCGCUCAACCAGAAAGUCUGUAAUCAUUUUAAGGGUA [U38C A62G A69G A94G U97A]	0.7
GUUAACGGUCAUAGGCCAUGGAAACUAGGAGCACCAUCUCGCUGCCAGUGAAGAAAUGAGCAAAGAGAAUCUGGGCCAGGCAGGCAUCAAAAGAAAUAGUCUUGCGCUCAACCAGAAAGUCUGUAAUCAUUUUAAGGGUU [U38C A60G A67G A140U]	1.31
GUUAACGGUCAUAGGCCAUGGAAACUAGGAGCACCAUCUCGCUGCCAGUGAAGAAGUGAACAAAGAAAAUCUGGGCCAGGCAGGCAUCAAAAGGAAUAGUCUUGCGCUCAACCAGAAAGUCUGUAAUCAUUUUAAGGGUA [U38C A56G A94G]	2.12
GUUAACGGUCAUAGGCCAUGGAAACUAGGAGCACCAUCUCGCUGCCAGUGAAGAAAUGAACGAAGAAAAUCAGGGCCAGGCAGGCAUCAAAAGAAAUAGUCUUGCGCUCAGCCAGAAAGUCUGUAAUCAUUUUAAGGGUA [U38C A62G U72A A111G]	0.03
GUUAACGGUCAUAGGCCAUGGAAACUAGGAGCACCAUCUCGCUGCCAGUGAAGAAAUGAACAGAGAAAAUCUGGGCCAGGCAGGCAUCAAAAGAAGUAGUCUUGCGCUCAACCAGAAAGUCUGUAAUCAUUUUAAGGGUA [U38C A63G A96G]	0.45
GUUAACGGUCAUAGGCCAUGGAAACUAGGAGCACCAUCUCGCUGCCAGUGAAGAAAUGAACUAAGAAAAUCUGGGCCAGGCAGGCAUCAAAAGAGAUAGUCUUGCGCUCAACCAGAAAGUCUGUAAUCAUUUUAAGGGUA [U38C A62U A95G]	2.11
GUUAACGGUCAUAGGCCAUGGAAACUAGGAGCACCAUCUCGCUGCCAGUGAAGAAAUGAACAAAGAGAAUCUGGGCCAGGCAGGCAUCAAAAGAAACAGUCUUGCGCUCAACCAGAAAGUCUGUAAUCAUUUUAAGGGUA [U38C A67G U97C]	1.32
GUUAACGGUCAUAGGCCAUGGAAACUAGGAGCACCAUCUCGCUGCCAGUGAAGAAGUGAACAAAGAAAAUCUGGGCCAGGCAGGCGUCAAAAGAAGUAGUCUUGCGCUCAACCAGUAAGUCUGUAAUCAUUUUAAGGGUA [U38C A56G A86G A96G A116U]	0.19
GUUAACGGUCAUAGGCCAUGGAAACUAGGAGCACCAUCUCGCUGCCAGUGAAGAAGUGAACAAAGAAAAUCUGGGCCAGGCAGGCAUCAAAAGAAAUAGUCUUGCGCUCAACCGGAAAGUCUGUAAUCAUUUUAAGGGUA [U38C A56G A114G]	0.2
GUUAACGGUCAUAGGCCAUGGAAACUAGGAGCACCAUCUCGCUGCCAGUGAAGAAAUGACCAAAGAAAAUCAGGGCCAGGCAGGCAUCAAAAGAAAUAGUCUUGCGCUCAACCAGAAUGUCUGUAUUCCUUUUAAGGGUA [U38C A60C U72A A118U A126U A129C]	0.02
GUUAACGGUCAUAGGCCAUGGAAACUAGGAGCACCAUCUCGCUGCCAGUGAAGAAAUGAACAAAGGAAAUCUGGGCCUGGCAGGCAUCAAAAGAAAUAGUCUUGCGCUCAACCAGAAAGUCUGUAACCAUUUUAAGGGUA [U38C A66G A78U U127C]	0.4
GUUAACGGUCAUAGGCCAUGGAAACUAGGAGCACCAUCUCGCUGCCAGUGAAGAGAUGAACAAAGAAAAUCUGGGCCAGGCAGGCAUCAAAAGAAAUAAUCCUGCGCUCAACCAGAAAGUCUGUAAUCGUUUUAAGGGUA [U38C A55G G99A U102C A129G]	0.56
GUUAACGGUCAUAGGCCAUGGAAACUAGGAGCACCAUCUCGCUGCCAGUGAAGAAAUGAACAAAGGAAAUCUGGGCCAGGCAGGCACCAAAAGGAAUAGUCUUGCGCCCAACCAGAAAGUCUGUAAUCAUUUUAAGGGUA [U38C A66G U87C A94G U108C]	0.01
GUUAACGGUCAUAGGCCAUGGAAACUAGGAGCACCAUCUCGCUGCCAGUGAAGAGAUGAACAAAGAAAAUCUGGGUCAGGCAGGCAUCAAAAGAAAUGGUCUUGCGCUCAACCAGAAAGUCUGUAAUCAUUUUAUGGGUA [U38C A55G C76U A98G A135U]	0.06
GUUAACGGUCAUAGGCCAUGGAAACUAGGAGCACCAUCUCGCUGCCAGUGAAGAAGUGAACAAAGAAAACCUGGGCCAGGCAGGCAUCAAAAGAAAUAGUCUUGCGCUCAACCAGAAAGUCUGUAAUCAUUUUAAGGGUG [U38C A56G U70C A140G]	0.43

Variant	self-cleavage
GUUAACGGUCAUAGGCCAUGGAAACUAGGAGCACCAUCUCGCUGCCAGUGAAGAAAUGAACAAGGAAAAUCUGGGCCUGGCAGGCGUCAUAAGAAAUAGUCUUGCGCUCAACCAGAAAGUCUGUAAUCAUUUUAAGGGUA [U38C A64G A78U A86G A90U]	0.11
GUUAACGGUCAUAGGCCAUGGAAACUAGGAGCACCAUCUCGCUGCCAGUGAAGAAAUGGACGAAGAAAAUCUGGGCCAGGCAGGCAUCAAAAGAAAUAGUCUUGCGCUCAACCAGAAGGUCUGUAAUCAUUUUAAGGGUA [U38C A59G A62G A118G]	0.31
GUUAACGGUCAUAGGCCAUGGAAACUAGGAGCACCAUCUCGCUGCCAGUGAAGAAAUGGACAAAGAAAAUCUGGGCCAGGCAGGCAUCAAAAGGAAUAGUCUUGCGCUCAACCAGAAAGUCUGUAAUCAUUUUAAGGGUA [U38C A59G A94G]	1.78
GUUAACGGUCAUAGGCCAUGGAAACUAGGAGCACCAUCUCGCUGCCAGUGAAGAAAUGAACAAAGAGAAUCUGGGCCAGGCAGGCAUCAAGAGGAAUAGUCUUGCGCUCAACCAGAAAGUCUGUAAUCAUUUUAAGGGUA [U38C A67G A91G A94G]	1.08
GUUAACGGUCAUAGGCCAUGGAAACUAGGAGCACCAUCUCGCUGCCAGUGAAGAAGUGGACAAAGAAAAUCUGGGCCAGGCAGGCAUCAAAAGAAAUAGUCUUGCGCUCAACCAGAAAGUCUGUAAUCAUUUUAAGGGUA [U38C A56G A59G]	0.64
GUUAACGGUCAUAGGCCAUGGAAACUAGGAGCACCAUCUCGCUGCCAGUGAAGAGAUGAACAAAGAAAAUCUGGGCCAGGCAGGCAUCAAAAGAAAUAGUCUUGCGCUCAACCAGAAAGUCUGUAAUCACUUUAAGGGUA [U38C A55G U130C]	1.34
GUUAACGGUCAUAGGCCAUGGAAACUAGGAGCACCAUCUCGCUGCCAGUGAAGAAAUGAACAAAGGAAAUCUGGGCCAGGCAGGCAUCAAAAGAAAUAGUCUUGCGCUCAACCAGUAAGUCUGUAAUCAUUUUAGGGGUA [U38C A66G A116U A135G]	0.38
GUUAACGGUCAUAGGCCAUGGAAACUAGGAGCACCAUCUCGCUGCCAGUGAAGAGAUGAACAAAGAAAAUCUGGGCCAGGCCGGCAUCAAAAGAAAUAGUCCUGCGCUCAACCCGAAAGUCUGUAAUCAUUUUAAGGGUA [U38C A55G A82C U102C A114C]	0.01
GUUAACGGUCAUAGGCCAUGGAAACUAGGAGCACCAUCUCGCUGCCAGUGAAGAGAUGAACAAAGAAAAUCUGGGCCAGGCAGGCAUCAAAGGAAAUAGUCUUGCGCUCGACCAGGAAGUCUGUAAUCAUUUUAAGGGUA [U38C A55G A92G A110G A116G]	0.04
GUUAACGGUCAUAGGCCAUGGAAACUAGGAGCACCAUCUCGCUGCCAGUGAAGAAAUGAACAAAGACAAUCUGGGCCAGGCUGGCAUCAAAAGAAAUAGUCUUGCGCUCGACCAGAAAGUCUGUAAUCAUUUUAAGGGUA [U38C A67C A82U A110G]	0.02
GUUAACGGUCAUAGGCCAUGGAAACUAGGAGCACCAUCUCGCUGCCAGUGAAGACGAGAACAAAGAAAAUCUGGGCCAGGCAGGCAUCAAAAGAAAUAGUCUUGCGCUCAACCAGAAAGUCCGUAAUCAUUUUAGGGGUA [U38C A55C A56G U57A U122C A135G]	0.21
GUUAACGGUCAUAGGCCAUGGAAACUAGGAGCACCAUCUCGCUGCCAGUGAAGAAAUGAGCAAAGAAAAUCGGGGCCAGGCAGGCAUCAAAAGAAAUAGUCUUGCGCUCAACCAGAAAGUCUGUAAUCAUUUUAAGGGUA [U38C A60G U72G]	0.18
GUUAACGGUCAUAGGCCAUGGAAACUAGGAGCACCAUCUCGCUGCCAGUGAAGAAAUGAUCAAAAAAAAUCUGGGCCAGGCAGGCAUCAAAAGAAAUAGUCUUGCGCUCAACCAGAAAGUCUGUAAUCAUUUUAAGGGUA [U38C A60U G65A]	1.77
GUUAACGGUCAUAGGCCAUGGAAACUAGGAGCACCAUCUCGCUGCCAGUGAAGAAAUGAACAAGGAAAAUCUGGGCCAGGCAGGCAUCAAAAGAGAUAGUCUUGCGCUCAACCAGAAAGUCUGUAAUCAUUUUAAGGGUA [U38C A64G A95G]	2.09
GUUAACGGUCAUAGGCCAUGGAAACUAGGAGCACCAUCUCGCUGCCAGUGAAGAAAUGAACAAAGUAAAUCUGGGCCAGGCAGGCAUCAAAGGAAAUAGUCUUGCGCUCAACCAGAAAGUCUGUGAUCAUUUUAAGGGUG [U38C A66U A92G A125G A140G]	0.99
GUUAACGGUCAUAGGCCAUGGAAACUAGGAGCACCAUCUCGCUGCCAGUGAAGAAAUGAACAAAGAGAAUCUGGGCCAGGCAGGCAUCAAAAGAAACAGUCUUGCGCUCGACCAGAAAGUCUGUAAUCAUUUUAAGGGUA [U38C A67G U97C A110G]	0.13
GUUAACGGUCAUAGGCCAUGGAAACUAGGAGCACCAUCUCGCUGCCAGUGAAGAGAUGAACAAAGAAAAUCUGGGCCAGGCAGGCAACAAAAGAAACAGUCUUGCGCUCAACCAGAGAGUCUGUAAUCAUUUUAAGGGUA [U38C A55G U87A U97C A117G]	0.3
GUUAACGGUCAUAGGCCAUGGAAACUAGGAGCACCAUCUCGCUGCCAGUGAAGAAGUGAACAAAGAAAAUCUGGGCCAGGCAGGCAUCAAAAGAAAUAGUCUUGCGCUCAACCAGAAAGUCUGUAAUCAUUUUAAGGGUG [U38C A56G A140G]	1.15
GUUAACGGUCAUAGGCCAUGGAAACUAGGAGCACCAUCUCGCUGCCAGUGAAGAAAUGAACAUAGAAAAUCUGGGCCGGGCAGGCAUCAAAAGAAAUAGUCUUGCGCUCAACCAGAAAGUCUGUAAUCAUUUUAAGGGUA [U38C A63U A78G]	0.22
GUUAACGGUCAUAGGCCAUGGAAACUAGGAGCACCAUCUCGCUGCCAGUGAAGAAAUGAACGAAGCAAGUCUGGGCCGGGCAGGCAUCAAAAGAAAUGGUCUUGCGCUCAGCCAGAAAGUCUGUAAUCAUUUUAAGGGUA [U38C A62G A66C A69G A78G A98G A111G]	0.04
